{"source": "paper PMC4336329", "about": "(PLoS ONE, 2015)", "note": "The whole screen tested about 310,000 compounds, of which about 14,000 (4.5%) showed an effect of 50% or more. The effect is printed as a negative number. The list shows a part of the results.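 Also: peak tail current of the secondary pulse compared with the same well before compound.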"}
{"molecular_target": "human ether-à-go-go-related gene (hERG) potassium channel (human, UniProt Q12809)", "sequence (Q12809 whole entry, looked up)": "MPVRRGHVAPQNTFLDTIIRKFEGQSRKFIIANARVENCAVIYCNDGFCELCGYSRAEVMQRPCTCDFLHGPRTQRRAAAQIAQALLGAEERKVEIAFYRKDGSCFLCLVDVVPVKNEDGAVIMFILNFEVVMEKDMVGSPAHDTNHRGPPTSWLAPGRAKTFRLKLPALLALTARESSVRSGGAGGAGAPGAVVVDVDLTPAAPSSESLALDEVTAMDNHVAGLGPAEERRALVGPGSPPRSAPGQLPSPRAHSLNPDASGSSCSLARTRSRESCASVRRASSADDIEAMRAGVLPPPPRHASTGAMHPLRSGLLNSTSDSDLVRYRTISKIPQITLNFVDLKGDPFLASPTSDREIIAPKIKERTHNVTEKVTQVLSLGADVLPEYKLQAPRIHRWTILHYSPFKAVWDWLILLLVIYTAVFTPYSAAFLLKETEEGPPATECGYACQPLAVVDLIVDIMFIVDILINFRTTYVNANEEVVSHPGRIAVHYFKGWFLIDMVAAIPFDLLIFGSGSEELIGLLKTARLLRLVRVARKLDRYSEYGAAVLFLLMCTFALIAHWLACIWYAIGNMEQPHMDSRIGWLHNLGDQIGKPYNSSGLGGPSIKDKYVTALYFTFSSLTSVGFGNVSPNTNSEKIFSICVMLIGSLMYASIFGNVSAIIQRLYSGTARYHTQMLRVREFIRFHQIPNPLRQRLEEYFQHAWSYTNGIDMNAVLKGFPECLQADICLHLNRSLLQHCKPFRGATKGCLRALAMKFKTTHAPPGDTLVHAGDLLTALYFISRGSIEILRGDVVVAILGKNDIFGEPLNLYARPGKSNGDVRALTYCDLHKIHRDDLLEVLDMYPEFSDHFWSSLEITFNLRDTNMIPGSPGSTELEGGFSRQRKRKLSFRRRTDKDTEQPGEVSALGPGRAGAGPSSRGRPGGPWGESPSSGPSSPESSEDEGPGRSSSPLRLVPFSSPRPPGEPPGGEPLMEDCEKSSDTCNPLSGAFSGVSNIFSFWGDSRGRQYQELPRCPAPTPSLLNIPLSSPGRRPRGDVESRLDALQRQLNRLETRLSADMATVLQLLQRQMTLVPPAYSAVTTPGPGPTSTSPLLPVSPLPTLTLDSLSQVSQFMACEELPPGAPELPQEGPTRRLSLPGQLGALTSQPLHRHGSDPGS", "experiment": "primary screen, population patch clamp on CHO cells stably expressing hERG", "units": {"hERG current change (%, negative = inhibition) at 10uM": "%"}}
{"smiles": "CCc1cc2c(NCCC(=O)O)ncnc2s1", "hERG current change (%, negative = inhibition) at 10uM": 4.76}
{"smiles": "CCCc1nnc(NC(=O)CCC(=O)N2CCC(Cc3ccccc3)CC2)s1", "hERG current change (%, negative = inhibition) at 10uM": -1.49}
{"smiles": "Cc1ccc2c(CN3CCN(CCO)CC3)cc(=O)oc2c1", "hERG current change (%, negative = inhibition) at 10uM": -74.9}
{"smiles": "COc1ccc(CC(=O)Nc2ccccc2N2CCCC2)cc1OC", "hERG current change (%, negative = inhibition) at 10uM": -5.03}
{"smiles": "Cc1ccc(-c2[nH]nc3c2C(c2cccnc2)C(C#N)=C(N)O3)cc1", "note": "(stereo not shown)", "hERG current change (%, negative = inhibition) at 10uM": -7.46}
{"smiles": "Cc1cccnc1NC(=O)Cn1nc(-c2ccccc2)oc1=S", "hERG current change (%, negative = inhibition) at 10uM": -2.2}
{"smiles": "COc1cc(/C=C/C(=O)OCC(=O)N(C)C2CCS(=O)(=O)C2)ccc1OC(F)F", "note": "(stereo not shown)", "hERG current change (%, negative = inhibition) at 10uM": -10.6}
{"smiles": "CCOC(=O)c1ccc(-n2ccnc2)c(NC(=O)c2ccc(Cl)cc2)c1", "hERG current change (%, negative = inhibition) at 10uM": -66.2}
{"smiles": "COc1cc2c(cc1OC)-c1nncn1C(C)(C)C2", "hERG current change (%, negative = inhibition) at 10uM": -6.6}
{"smiles": "COc1cc(OC)c(C(=O)O/N=C(\\N)c2ccccn2)cc1OC", "hERG current change (%, negative = inhibition) at 10uM": 12.1}
{"smiles": "CCC(N)C12CC3CC(CC(O)(C3)C1)C2.Cl", "note": "(stereo not shown)", "hERG current change (%, negative = inhibition) at 10uM": 9.05}
{"smiles": "CCc1ccc2nc3sc(C(=O)N4CCc5ccccc54)c(N)c3cc2c1", "hERG current change (%, negative = inhibition) at 10uM": 11.3}
{"smiles": "CCN(CC)S(=O)(=O)c1ccc2c(c1)nc(SCC(=O)N1CCCCCC1)n2-c1ccc(OC)cc1", "hERG current change (%, negative = inhibition) at 10uM": -21}
{"smiles": "COC(=O)C(NC(C)=O)(Nc1ccccc1)C(=O)OC", "hERG current change (%, negative = inhibition) at 10uM": 23.8}
{"smiles": "CC(C)(C)NC(=O)NC(=O)CN1C(=O)NC(C)(c2ccccc2)C1=O", "note": "(stereo not shown)", "hERG current change (%, negative = inhibition) at 10uM": 15.8}
{"smiles": "CC(=O)N1CCN(CC(=O)Nc2ccc3c(c2)CCC3)CC1", "hERG current change (%, negative = inhibition) at 10uM": 7.59}
{"smiles": "CC(C)N(CCc1ccncc1)C(=O)Nc1ccc(F)cc1", "hERG current change (%, negative = inhibition) at 10uM": -7.73}
{"smiles": "CC(=Nc1cccc(C)c1)c1sc2ccccc2c1O", "hERG current change (%, negative = inhibition) at 10uM": -3.09}
{"smiles": "Cn1c(SCC(=O)NCc2ccc3c(c2)OCO3)nc2scc(-c3cccs3)c2c1=O", "hERG current change (%, negative = inhibition) at 10uM": 4.93}
{"smiles": "Cc1cc(C)c(-c2csc(NC(=O)COC(=O)c3ccc4c(c3)OCO4)n2)c(C)c1", "hERG current change (%, negative = inhibition) at 10uM": -1.33}
{"smiles": "O=C(N/N=C/c1ccccn1)c1cccc([N+](=O)[O-])c1", "hERG current change (%, negative = inhibition) at 10uM": -10.3}
{"smiles": "c1ccn2c(CNc3ncnc4sccc34)nnc2c1", "hERG current change (%, negative = inhibition) at 10uM": -1.62}
{"smiles": "Cc1nn(-c2ccccc2)nc1C(N)=O", "hERG current change (%, negative = inhibition) at 10uM": 14.5}
{"smiles": "CC(=O)COc1ccc2c3c(c(=O)oc2c1C)CCCCC3", "hERG current change (%, negative = inhibition) at 10uM": -8.54}
{"smiles": "COc1cc2c(cc1OC)CN(C(=O)c1cc(S(=O)(=O)N3CCOCC3)ccc1Cl)CC2", "hERG current change (%, negative = inhibition) at 10uM": -13.9}
